Some of the results follow.
B1: 90667016_90667136_1652_3pUTR_ENSG00000113369_ENST00000265138|human|control|control (ssRNA)
RNA: GGGAGUUCUACAGUCCGACGAUCCUUCAAGCAUGUUGGAGCAGUCUCAGAAUGUUGCUGUAGGCUUCUAAAGCAUGAUCACUGGUUGUUUCAUGUAUUCGCCAUUUUUCUGGGCAAAAGUAAUUCCACUUCCUCUGAAACGUGCAACAGAGGAUUGAGCAUCA
B2: chr3:94910677:94910678:-_ENSMUSG00000028126_ENSMUST00000107236|mus_hu|FALSE|FALSE (ssRNA)
RNA: GGGAGUUCUACAGUCCGACGAUCAGCUUAAGCUGGCUGCUGGGACCUUGCGCCCAGACCAAGCCACAUCUGAAAAAAAAACGAGGCAUGAAAAGUCCCAAAGGAGCGAACGCCCCUUCUCCGUCCUUCCUAACCACGGCCUGUCAACAGAGGAUUGAGCAUCA
B3: chr9:113799110:113799111:+_ENSMUSG00000033392_ENSMUST00000111838|mus_mus|FALSE|FALSE (ssRNA)
RNA: GGGAGUUCUACAGUCCGACGAUCCAGCAGAACAAACAACCAAUCUUGAAGAUCAUCUUUGUGGACUUGUAUGAAAUCUACUAGAGUCUCCAAGAACAUGCUGAACACCUUGCCAUGAGGAUCUGCAAACAUUCUUGUGAAAAUCAACAGAGGAUUGAGCAUCA
B4: 3297105_3297225_820_CDS_ENSMUSG00000068566_ENSMUST00000164553|mouse|control|control (ssRNA)
RNA: GGGAGUUCUACAGUCCGACGAUCUGGCACGGUAGCCAUAUAGCCAGUGAUCUCACCGGGCCUUGCACGGGUCCAGGCCACUUCAGUGGCAUACGCCAAACAGGCAACGCAGGAGAAAGUGGUGGCAGCGAUGGCAUGGUCCCGCAACAGAGGAUUGAGCAUCA
B5: chr2:5814250:5814251:-_ENSMUSG00000025816_ENSMUST00000102981|mus_hu|mus_mus_mus_hu_True|1_108 (ssRNA)
RNA: GGGAGUUCUACAGUCCGACGAUCUUCCUUUCAGGCUUCUGAAUUUCUGGUAGAACUGCACAGAAUGGUUUGAUAACUUCUAAAAAUUUGAUGCCCAUGGCUGCUGCUGGGGAGGCCCAGGGGGAAACCGCGGCCUCGCAGCUGCAACAGAGGAUUGAGCAUCA
B6: 87340226_87340346_1349_CDS_ENSMUSG00000003382_ENSMUST00000170036|mouse|control|control (ssRNA)
RNA: GGGAGUUCUACAGUCCGACGAUCGGGAGUGCUAAUGGACACAGAGGGCCAGGUGGGUGAGGGGUGGGCAAACCCGGUGCCUUUCCCCUCUUCUAUGGUCCUGCUCCGCAUGCUGUCCACUUCUUGGGUCUGUUCCUCCUUUCCCAACAGAGGAUUGAGCAUCA
B7: chr3:9412954:9412955:+_ENSG00000134077_ENST00000452837|hu_mus|hu_hu_hu_mus_False|48_48 (ssRNA)
RNA: GGGAGUUCUACAGUCCGACGAUCGGUUGAUAUCUCUUCUUUGAUGGCUGGAUUUUCAUAAUAGUCCAAGAUAUGUGAAUCUGAAGUAUGGCUAGUGUGCUUUUUCUUACCAUCUUUCUCAUCUGCUUUGUCUCCUUGUCCACACAACAGAGGAUUGAGCAUCA
B8: chr8:89189611:89189612:+_ENSMUSG00000047866_ENSMUST00000034141|mus_hu|FALSE|FALSE (ssRNA)
RNA: GGGAGUUCUACAGUCCGACGAUCAAAAAGAACUUGAGAAAGGUCAAAGGCCACAUUUAGAUAAUGAUCUGUGAAGUUAUGGUUUUGUUCAGGAUCCAACACCUCAAGCAGAGCUGCUGCUGGAUCACCCUGUAGACUUUUUCCCAACAGAGGAUUGAGCAUCA
B9: 123898113_123898233_537_CDS_ENSG00000119397_ENST00000373850|human|control|control (ssRNA)
RNA: GGGAGUUCUACAGUCCGACGAUCCUCUUCCUUGAGCUGGUUGGCUUCAGCAUCCCUUAGGUUUAGCCGAGCCUCUAGCUCAGCUUCAUAGGCACUGAGAUCUCCCUGGGUCUGCUGCAAAGAUGCAUUCACCUCAUGCUGCUCCAACAGAGGAUUGAGCAUCA
B10: chr3:176740097:176740098:-_ENSG00000177565_ENST00000430069|hu_mus|hu_hu_hu_mus_True|38_68 (ssRNA)
RNA: GGGAGUUCUACAGUCCGACGAUCUGUUUUGUAUACCACAAAAGGAGGCACUUUCAGUAUCUGCAAAAGGUAUUUAAUCCUAAAACAUACUCACCUAGAGAAUAAUUCAGGAAAACAAUCUGUUACACUCUAAGACCUACUCCACAACAGAGGAUUGAGCAUCA
B11: 35209774_35209894_253_3pUTR_ENSMUSG00000031513_ENSMUST00000033910|mouse|control|control (ssRNA)
RNA: GGGAGUUCUACAGUCCGACGAUCCUCCACGACCCGGGCGGUGGCCGGGAGACCCGAGACGCGCGGCGGCGGCGGCGGCCAGACAACACCCGGAAGUGCACCCCGCUGCACUUCCGCCGGCGGCUCGCGCGGGGGCGUGGGGGCCAACAGAGGAUUGAGCAUCA
B12: chr1:110565788:110565789:+_ENSG00000168710_ENST00000369799|hu_mus|motif|central (ssRNA)
RNA: GGGAGUUCUACAGUCCGACGAUCAUUCUGUCUUUAAUGCCUGUUUCUCUGAUCAGUGGAAAGAGAGAAGUAAACAUUUCGGGUACCGGUCAUUAACACAUAACCCAUCUUUGAAGGAUCACAAGCUAGAACACGUUGAGGACUCAACAGAGGAUUGAGCAUCA
B13: 34871378_34871498_3662_3pUTR_ENSMUSG00000037503_ENSMUST00000047534|mouse|control|control (ssRNA)
RNA: GGGAGUUCUACAGUCCGACGAUCUGCCUGUAGCCUAACUGACCCAAUCCUGAUGGUGGUGGGUUUGCUUCUCCAGAGUCAAGGAGCUUACAGUUUCCAAUACUCCACAACUCUAAACUGCAAGCAGCAGCAGCCGAGGAAGGACAACAGAGGAUUGAGCAUCA
B14: chr1:66485854:66485855:+_ENSMUSG00000015222_ENSMUST00000077355|mus_hu|FALSE|FALSE (ssRNA)
RNA: GGGAGUUCUACAGUCCGACGAUCGCCUUCAGAAUGUAGUGGAUAGCCUUCAGGCACAUGAAAGGUAAAAAUGCAAUUUUUAAAAUAAUAAUACUCCAUGCAAAACAGAGCAGAGCAAAAAUAAUUGUCCAAUUGAACCCAUGUCAACAGAGGAUUGAGCAUCA
B15: chr5:135101456:135101457:-_ENSMUSG00000040731_ENSMUST00000036125|mus_mus|FALSE|FALSE (ssRNA)
RNA: GGGAGUUCUACAGUCCGACGAUCACCCAAGAGUGCACCGUCAUAAGUCAGAGCCUCCUUCAGGGAAUCCACCUCAUCAAAUUCUACAUAGCAGAACCCUUUAAAUUUGUCUGUGUCUUUGUCUCUGACUAGCCGCACACUCCGCAACAGAGGAUUGAGCAUCA

Molecular target: T1, UNK ZnF1-3 (human, UniProt Q9C0B0 31-174)
T1 sequence: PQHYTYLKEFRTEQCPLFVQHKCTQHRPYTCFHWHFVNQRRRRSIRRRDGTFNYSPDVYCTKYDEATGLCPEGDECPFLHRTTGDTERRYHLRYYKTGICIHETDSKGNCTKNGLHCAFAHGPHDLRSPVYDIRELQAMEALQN
Test: nsRBNS (natural sequence RNA bind-n-seq); RBNS binding buffer (assumed for nsRBNS): 25 mM Tris pH 7.5, 150 mM KCl, 3 mM MgCl2, 0.01% Triton X-100, 500 ug/ml BSA, 20 U/ml SUPERase-In, 4 C; UNK is unkempt and MSI1 is Musashi-1; names of the RNAs are library labels; protein concentration not given here; high values mean tight binding

Binder	binding signal [enrichment R]
B1	0.604
B2	1.15
B3	1.21
B4	0.658
B5	0.995
B6	0.504
B7	0.395
B8	0.891
B9	0.512
B10	0.747
B11	0.607
B12	1.03
B13	0.799
B14	2.78
B15	0.444

From PMC12136788
